# Laboratory results: the supplement of paper PMC3334620
# In all, about 33,000 sequences were measured (“E-score (-0.5 to 0.5)”: median about -0.012, highest 2% from about 0.29 on). This is one part of the list.
# Target: T1, Ybr033w (UniProt P38073)
# T1 sequence: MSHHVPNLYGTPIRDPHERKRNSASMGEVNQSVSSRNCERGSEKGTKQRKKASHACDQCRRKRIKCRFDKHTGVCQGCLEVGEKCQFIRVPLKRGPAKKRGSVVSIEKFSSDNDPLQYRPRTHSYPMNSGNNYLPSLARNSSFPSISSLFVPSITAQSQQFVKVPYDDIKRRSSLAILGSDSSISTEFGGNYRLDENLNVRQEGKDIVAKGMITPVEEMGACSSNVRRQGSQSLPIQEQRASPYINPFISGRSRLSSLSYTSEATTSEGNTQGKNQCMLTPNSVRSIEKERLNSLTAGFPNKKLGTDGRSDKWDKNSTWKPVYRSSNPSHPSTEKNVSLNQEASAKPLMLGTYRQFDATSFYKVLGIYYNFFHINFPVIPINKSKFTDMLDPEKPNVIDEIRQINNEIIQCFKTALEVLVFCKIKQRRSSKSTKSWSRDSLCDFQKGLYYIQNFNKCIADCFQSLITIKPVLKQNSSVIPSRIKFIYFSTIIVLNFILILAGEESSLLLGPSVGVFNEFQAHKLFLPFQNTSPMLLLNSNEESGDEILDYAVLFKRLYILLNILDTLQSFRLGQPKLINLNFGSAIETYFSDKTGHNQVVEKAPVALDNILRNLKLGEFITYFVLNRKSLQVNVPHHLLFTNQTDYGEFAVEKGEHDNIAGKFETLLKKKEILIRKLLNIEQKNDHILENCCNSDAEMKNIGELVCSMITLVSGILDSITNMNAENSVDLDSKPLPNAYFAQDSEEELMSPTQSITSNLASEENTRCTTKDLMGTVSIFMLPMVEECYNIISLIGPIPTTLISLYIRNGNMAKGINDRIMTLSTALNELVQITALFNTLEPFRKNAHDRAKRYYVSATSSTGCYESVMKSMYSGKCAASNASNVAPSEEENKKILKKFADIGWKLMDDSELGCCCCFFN
# Assay: PBM E-score (8-mer binding enrichment) (E-score (-0.5 to 0.5)); higher = stronger / more preferred TF binding; most listed sequences are background and not binding sites
# Details: protein concentration: 200 nM; construct: GST-full length
# Protocol: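 Universal 'all 10-mer' protein binding microarrays (Agilent AMADID 015681) probed with GST-tagged S. cerevisiae TFs (full-length or DBD) made by in vitro transcription/translation (PURExpress), about 100-200 nM. Bound TF was detected with fluorescent anti-GST. Each ungapped 8-mer (which stands for itself and its reverse complement) is scored by the PBM enrichment score (E-score), a modified Wilcoxon-Mann-Whitney statistic from -0.5 to +0.5, computed with the Universal PBM Analysis Suite. Scale: above 0.35 generally sequence-specific binding.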
row,Sequence,PBM E-score
1,CATGCGAA,0.115
2,CTGTAAAG,0.0804
3,CCCTCATC,-0.264
4,AAGGCGTC,-0.215
5,TAGATACA,0.23
6,ACCATGCC,-0.0448
7,GTCGAGGA,-0.224
8,AACCACAG,-0.0335
9,CAGGCCGG,-0.293
10,GCCGTACC,-0.0432
11,ACGAAATA,0.0653
12,ATCGTCAG,-0.178
13,ATCACTGA,0.0336
14,CTACTGCA,-0.0757
15,CGCCTGTC,-0.27
16,CAGTCAGG,-0.0906
17,CAAGAGAG,-0.0202
18,GAAATATA,0.327
19,ATCATTAC,0.186
20,ATACTGTG,-0.0238
21,ATTACTCG,0.132
22,ATGTGAGA,-0.0149

row,Sequence,PBM E-score
1,CGTGGCTC,-0.201
2,ATAGTCGC,-0.0353
3,CAACCCTA,-0.15
4,CCTCGCCC,-0.127
5,ACCACTCA,-0.0754
6,CCGCATTC,0.00482
7,AAGCCAGC,-0.0802
8,CCGGCCTA,-0.015
9,CTTCTATC,-0.0659
10,CGCGGCCA,-0.218
11,AATGGCTG,0.033
12,AGAACTTG,0.223
13,CATCCTCC,-0.103
14,GTAGCTTA,0.107
15,TATCTACA,0.188
16,CCGCCATC,-0.137
17,GAGGTAAC,0.0868
18,ACAAGAAC,0.235
19,GTTGATTA,0.27
20,CAGCACAA,0.0574
21,ACGGGGCT,-0.335
22,CTAATCAG,0.00376

row,Sequence,PBM E-score
1,GGGTCAGA,-0.32
2,CTCTACAA,0.055
3,AGATACAA,0.292
4,CACCGAGA,-0.117
5,AAGCGGGA,0.0463
6,ACAGCGGA,-0.0436
7,CCAACTGC,-0.0491
8,AACCGCAC,-0.0594
9,CCTTGATC,0.0691
10,CGCCCCAG,-0.207
11,ACATGAAG,0.061
12,CATCATTA,0.279
13,CACAATGG,0.172
14,AGCATATA,0.119
15,AGCGGCGG,0.0715
16,GAGCATGC,-0.124
17,TTATATAA,0.411
18,CGTACATC,-0.0343
19,ATGAGGGG,-0.206
20,ATACTCAC,0.153
21,GAGTAAGC,-0.05
22,CATAAACG,0.0742

row,Sequence,PBM E-score
1,ACACATCG,-0.0899
2,ATTGCTTA,0.24
3,ACCAGAAT,0.0712
4,ATAACGGC,0.17
5,CTGTCGCA,-0.121
6,ATTTGCAC,0.0602
7,CAGCTTAG,-0.132
8,GCCCGCCA,-0.251
9,CCACAGCG,0.0277
10,GGCGTCAA,-0.123
11,ATTTTGTG,0.291
12,ACCCGCAT,0.00348
13,GCACATGC,-0.195
14,GATTAGAC,0.0967
15,AGCGGACC,-0.266
16,CCGGATTA,0.34
17,GGTGCTAC,-0.21
18,CCAGCCTA,-0.18
19,TACTCAAA,0.266
20,CCGTGTTC,0.192
